Test results taken from PubChem BioAssay AID686979 (National Center for Advancing Translational Sciences (NCATS), 2013).
The whole screen tested about 420,000 compounds, of which about 50,000 (12%) were called active. Inconclusive means that the source gave no clear call. Such entries were picked first, then a sample of the others. Calls come from the whole dose curve; as a rule, active = well fitted inhibition curve with a large enough effect; inconclusive = small, poorly fitted or top-dose-only effect; inactive = flat fitted curve, though single readings scatter. Potencies of inconclusive entries are left out as doubtful fits.

Assay: qHTS for Inhibitors of human tyrosyl-DNA phosphodiesterase 1 (TDP1): qHTS in cells in presence of CPT; note: nearly all actives have a fitted effect of over 55% in size
Conditions: chicken DT40 Tdp1-/-;hTDP1 cells + 20 nM CPT, ATP luminescence, 48 h; series mostly up to 46.2 µM
In short: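 Chicken DT40 Tdp1-/- cells stably complemented with human TDP1 were seeded at 400 cells/well in medium containing 20 nM camptothecin, exposed to pin-transferred compounds, and grown at 37 °C for at least 48 hr. Viability was read as ATP luminescence.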
Potency is the fitted concentration of half-maximal effect; tags give direction and shape of the fitted curve.

SMILES	Potency
CC1(C)CC(=O)C2=C(C1)OC1=C(C(=O)CC(C)(C)C1)C2c1ccccc1Cl	inconclusive [inhibitor, single point]
Cc1ccc(-c2ccc(CCC(=O)O)n2NC(=O)c2ccc([N+](=O)[O-])cc2)cc1	inactive
COc1ccc(Cl)cc1NC(=O)CSc1nc(=O)n(Cc2ccco2)c2c1CCC2	inconclusive [inhibitor, single point]
CC(C(=O)OCC(=O)c1ccc(Br)cc1)N1C(=O)C2C3C=CC(C3)C2C1=O (stereo not given)	inactive
Cc1onc(-c2c(F)cccc2Cl)c1-c1nnc(-c2ccc(C(F)(F)F)cc2)o1	inconclusive [inhibitor, single point]
CN(C(=O)C1CCC(=O)N(Cc2ccccc2F)C1)C1CCOCC1 (stereo not given)	inactive
O=C(c1ccco1)N1CCN(c2ccc([N+](=O)[O-])cc2Cl)CC1	inconclusive [inhibitor, single point]
COc1ccc(N2CCC(CNS(=O)(=O)c3cccc(C(F)(F)F)c3)C2)cc1 (stereo not given)	inconclusive [inhibitor, single point]
CCOC(=O)c1ccccc1NC(=O)c1cn(CC(C)C)c(=O)c2cc(OC)c(OC)cc12	inactive
CCOC(=O)N1CCN(C(=O)CCS(=O)(=O)c2ccc3c(c2)CCN3C(=O)CC)CC1	inactive
CC(C)C(C)NC(=O)COC(=O)C1CCN(S(=O)(=O)c2ccc3c(c2)OCCO3)CC1 (stereo not given)	inactive
Cc1cnc(CN2CCCC(C(=O)c3ccc4c5c(cccc35)CC4)C2)[nH]1 (stereo not given)	inconclusive [inhibitor, single point]
Cn1c(CNS(=O)(=O)c2ccc(Cl)cc2)n[nH]c1=S	inactive
CC1=NN(C(N)=S)C(=O)C1N=Nc1ccccc1[N+](=O)[O-] (stereo not given)	inconclusive [inhibitor, single point]
Nc1ncnc2c1ncn2[C@H]1C[C@H](O)[C@@H](COP(=O)(O)O)O1	inconclusive [inhibitor, full curve]
CCNc1sc(S(C)(=O)=O)nc1S(=O)(=O)c1ccc(Cl)cc1	inactive
COc1cc(NC(=S)NC(=O)c2ccc(F)cc2)ccc1NC(=O)c1ccco1	inactive
[O-]/C(=C(\C(=S)Nc1cccc2ccccc12)[n+]1ccccc1)c1ccc2c(c1)OCCO2	inconclusive [inhibitor, partial curve]
Cc1cc(Cl)c(OCCOCCN2CCN(C)CC2)c(Br)c1	inconclusive [inhibitor, single point]
O=C1C2CCCCC2C(=O)N1c1ccc(NC2CCN(Cc3ccccc3)CC2)c([N+](=O)[O-])c1 (stereo not given)	inconclusive [inhibitor, single point]
